Values joined by “and” are separate entries in the source; they are usually repeats but may differ in a detail not shown here. Identical values can stand only once.
Key:
[1] = target: kinase targets in FES^S700C HL-60 cells (Homo sapiens, UniProt Q9BRR6); details: Figure 6f; kinase ADPGK; WEL028 1 µM
[2] = target: kinase targets in FES^S700C HL-60 cells (Homo sapiens, UniProt Q2M2I8); details: Figure 6f; kinase AAK1; WEL028 1 µM
[3] = target: kinase targets in FES^S700C HL-60 cells (Homo sapiens, UniProt Q8NB16); details: Figure 6f; kinase MLKL; WEL028 1 µM
[4] = target: kinase targets in FES^S700C HL-60 cells (Homo sapiens, UniProt P15531); details: Figure 6f; kinase NME1; WEL028 1 µM
[5] = target: kinase targets in FES^S700C HL-60 cells (Homo sapiens, UniProt P31152); details: Figure 6f; kinase MAPK4; WEL028 1 µM
[6] = target: kinase targets in FES^S700C HL-60 cells (Homo sapiens, UniProt P28482); details: Figure 6f; kinase MAPK1; WEL028 1 µM
[7] = target: kinase targets in FES^S700C HL-60 cells (Homo sapiens, UniProt P14618); details: Figure 6f; kinase PKM; WEL028 1 µM
[8] = target: kinase targets in FES^S700C HL-60 cells (Homo sapiens, UniProt P00558); details: Figure 6f; kinase PGK1; WEL028 1 µM
[9] = target: kinase targets in FES^S700C HL-60 cells (Homo sapiens, UniProt P17858); details: Figure 6f; kinase PFKL; WEL028 1 µM
[10] = target: kinase targets in FES^S700C HL-60 cells (Homo sapiens, UniProt P07332, S700C); details: Figure 6f; kinase FES; WEL028 1 µM
[11] = target: kinase targets in FES^S700C HL-60 cells (Homo sapiens, UniProt Q01813); details: Figure 6f; kinase PFKP; WEL028 1 µM
[12] = target: kinase targets in FES^S700C HL-60 cells (Homo sapiens, UniProt P55263); details: Figure 6f; kinase ADK; WEL028 1 µM
[13] = target: kinase targets in FES^S700C HL-60 cells (Homo sapiens, UniProt Q02750); details: Figure 6f; kinase MAP2K1; WEL028 1 µM
[14] = target: kinase targets in FES^S700C HL-60 cells (Homo sapiens, UniProt Q13163); details: Figure 6f; kinase MAP2K5; WEL028 1 µM
[15] = target: kinase targets in FES^S700C HL-60 cells (Homo sapiens, UniProt Q15418); details: Figure 6f; kinase RPS6KA1; WEL028 1 µM
[16] = target: kinase targets in FES^S700C HL-60 cells (Homo sapiens, UniProt O43318); details: Figure 6f; kinase MAP3K7; WEL028 1 µM
[17] = target: kinase targets in FES^S700C HL-60 cells (Homo sapiens, UniProt Q8IW41); details: Figure 6f; kinase MAPKAPK5; WEL028 1 µM
[18] = target: kinase targets in FES^S700C HL-60 cells (Homo sapiens, UniProt O14733); details: Figure 6f; kinase MAP2K7; WEL028 1 µM
[19] = target: kinase targets in FES^S700C HL-60 cells (Homo sapiens, UniProt P51812); details: Figure 6f; kinase RPS6KA3; WEL028 1 µM
[20] = target: kinase targets in FES^S700C HL-60 cells (Homo sapiens, UniProt P36507); details: Figure 6f; kinase MAP2K2; WEL028 1 µM
[21] = target: kinase targets in FES^S700C HL-60 cells (Homo sapiens, UniProt P46734); details: Figure 6f; kinase MAP2K3; WEL028 1 µM
[22] = target: kinase targets in FES^S700C HL-60 cells (Homo sapiens, UniProt O14976); details: Figure 6f; kinase GAK; WEL028 1 µM
[23] = target: kinase targets in FES^S700C HL-60 cells (Homo sapiens, UniProt P27361); details: Figure 6f; kinase MAPK3; WEL028 1 µM

Structure (SMILES): C#CCOc1ccc(Nc2ncc(Cl)c(Nc3ccccc3NC(=O)C=C)n2)c(OC)c1 [Compound 6]
- Fold enrichment over vehicle [1]: 8.345 and 7.087 and 6.890
- Fold enrichment over vehicle [2]: 2.888 and 3.284 and 2.733
- Fold enrichment over vehicle [3]: 4.020 and 2.753 and 2.842
- Fold enrichment over vehicle [4]: 5.059 and 4.968 and 4.667
- Fold enrichment over vehicle [5]: 2.202 and 2.228 and 1.702
- Fold enrichment over vehicle [6]: 101.649 and 113.458 and 99.127
- Fold enrichment over vehicle [7]: 3.367 and 4.114 and 3.701
- Fold enrichment over vehicle [8]: 3.111 and 2.913 and 2.858
- Fold enrichment over vehicle [9]: 14.982 and 14.069 and 13.466
- Fold enrichment over vehicle [10]: 17.346 and 15.412 and 14.720
- Fold enrichment over vehicle [11]: 10.227 and 11.752 and 10.493
- Fold enrichment over vehicle [12]: 19.749 and 22.347 and 18.441
- Fold enrichment over vehicle [13]: 44.231 and 62.881 and 51.980
- Fold enrichment over vehicle [14]: 3.389 and 3.993 and 3.476
- Fold enrichment over vehicle [15]: 5.633 and 5.308 and 5.126
- Fold enrichment over vehicle [16]: 3.401 and 3.644 and 2.943
- Fold enrichment over vehicle [17]: 4.753 and 5.019 and 4.438
- Fold enrichment over vehicle [18]: 3.329 and 3.967 and 3.371
- Fold enrichment over vehicle [19]: 2.865 and 3.187 and 2.209
- Fold enrichment over vehicle [20]: 68.904 and 88.929 and 69.455
- Fold enrichment over vehicle [21]: 3.609 and 4.091 and 3.689
- Fold enrichment over vehicle [22]: 46.597 and 48.249 and 48.210
- Fold enrichment over vehicle [23]: 13.612 and 14.563 and 12.858
